# Source: PubChem BioAssay AID2107 (National Center for Advancing Translational Sciences (NCATS), 2009)
# About 20 (0.008%) of roughly 240,000 compounds were called active. Inconclusive means that the source gave no clear call. Such entries were picked first, then a sample of the others. Calls follow the shape of the dose curve; as a rule, active = well fitted inhibition curve with a large enough effect; inconclusive = small, poorly fitted or top-dose-only effect, or effect the other way; inactive = flat fitted curve, though single readings scatter. No potency is given beside an inconclusive call; the fits are too rough.
# Molecular target: Alpha-galactosidase A (Homo sapiens) (UniProt P06280)
# UniProt P06280, sequence (P06280 whole entry, looked up): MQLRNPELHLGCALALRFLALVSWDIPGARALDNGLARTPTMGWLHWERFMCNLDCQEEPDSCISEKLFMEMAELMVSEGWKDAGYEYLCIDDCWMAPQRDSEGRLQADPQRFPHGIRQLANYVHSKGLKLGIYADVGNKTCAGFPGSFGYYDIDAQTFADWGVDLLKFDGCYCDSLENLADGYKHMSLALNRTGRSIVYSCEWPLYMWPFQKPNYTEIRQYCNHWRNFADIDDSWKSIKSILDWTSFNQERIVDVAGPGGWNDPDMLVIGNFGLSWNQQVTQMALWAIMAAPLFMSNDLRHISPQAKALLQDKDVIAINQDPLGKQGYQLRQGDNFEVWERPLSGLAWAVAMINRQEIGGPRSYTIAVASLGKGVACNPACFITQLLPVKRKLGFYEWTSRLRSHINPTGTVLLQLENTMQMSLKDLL
# Assay: qHTS Assay for Inhibitors and Activators of Human alpha-Galactosidase From Spleen Homogenate
# Conditions: 4MU-alpha-Gal fluorescence, 40 min; series mostly up to 80 µM
# How it was run: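 Human spleen homogenate (1 ug) was the enzyme source, with 4-methylumbelliferyl-alpha-D-galactopyranoside (1 mM final) in pH 5.0 citrate buffer with 0.01% Tween-20. Compounds were titrated; after 40 min at 37C, NaOH/glycine stop, 4-MU fluorescence read; AC50 from Hill fits.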
# Potency is read from the fitted curve at half-maximal effect; tags tell the direction and shape of the fitted curve.
row,Compound,Potency
1,COc1cc2nc(N3CCN(C(=O)[C@H]4CCCO4)CC3)nc(N)c2cc1OC,"inconclusive [activator, partial curve]"
2,COc1ccccc1NC(=O)Nc1ccc2c(c1)nnn2C,"inconclusive [inhibitor, single point]"
3,NS(=O)(=O)c1ccc(N2N=C(c3ccccc3)CC2c2ccc(F)cc2)cc1 (centres undefined),"inconclusive [activator, partial curve]"
4,N#Cc1c(-c2cccc(Br)c2)cc(-c2ccco2)[nH]c1=O,"inconclusive [activator, partial curve]"
5,CCC(=O)N1N=C(c2ccc(NS(=O)(=O)CC)cc2)CC1c1ccc(C)cc1 (centres undefined),"inconclusive [activator, partial curve]"
6,CNc1ccc(-c2nc3ccccc3s2)cc1,"inconclusive [activator, partial curve]"
7,Cc1ccccc1-n1c(Cc2cccs2)n[nH]c1=S,"inconclusive [inhibitor, full curve, poor fit]"
8,CC(C)OC(=O)c1c(N)n(CCCN2CCOCC2)c2nc3ccccc3nc12,"inconclusive [activator, partial curve]"
9,CCOC(=O)N1CCN(C(=O)c2cnn3c(C)c(Cc4ccc(C)cc4)c(C)nc23)CC1,inactive
10,C=C(CO)C1Cc2c(ccc3c2OC2COc4cc(OC)c(OC)cc4C2C3=O)O1 (centres undefined),inactive
11,CCOCCCn1c(=NC(C)=O)c(C#N)cc2c(=O)n3cccc(C)c3nc21,"inconclusive [activator, partial curve]"
12,c1ccc(CCNc2ccnc3cc4ccccc4cc23)cc1,"inconclusive [activator, partial curve]"
13,Cc1noc(/C=C/N(C)C)c1S(=O)(=O)N1CCC(C(=O)O)CC1,"inconclusive [inhibitor, full curve, poor fit]"
14,CN1CCN(C(=O)c2cc3c(ccc4ccccc43)oc2=O)CC1,"inconclusive [activator, partial curve]"
15,Cc1ccc2nc(-c3sc4nc(C)cc(C)c4c3N)[nH]c2c1,"inconclusive [activator, partial curve]"
16,Cc1ccc(S(=O)(=O)Nc2ccc(NC(=O)c3c(F)c(F)c(F)c(F)c3F)cc2)cc1,"inconclusive [inhibitor, single point]"
17,Oc1c(N=NC(=S)Nc2ccccc2F)c2ccccc2n1Cc1ccccc1Cl,inactive
18,CCN1c2ccccc2N(C)C1(C)c1ccccc1 (centres undefined),inactive
19,COc1ccc2ccccc2c1C1CC(=O)N2CN(C3CCCCC3)CSC2=C1C#N (centres undefined),inactive
20,Cc1ccc(Cc2c(C)nc3nc(SCC(=O)NCc4ccco4)nn3c2C)cc1,inactive
21,Nc1nc(SCC(=O)c2ccc([N+](=O)[O-])cc2)n[nH]1,inactive
22,COc1cccc(C2CN(c3ccc(F)cc3F)N=C2c2cccs2)c1OC (centres undefined),"inconclusive [activator, partial curve]"
23,CC(C)C(=O)Nc1ccc2c(c1)C(=O)NC2=O,"inconclusive [activator, single point]"

row,Compound,Potency
1,COCCNC(=S)NN=C1CCCCCC1,inactive
2,Cc1ccc(-c2cc(C(=O)O)c3sc(N4CCCCC4)nc3n2)cc1,"inconclusive [activator, partial curve]"
3,Cc1cccc(N(Cc2cc3ccccc3[nH]c2=O)C(=O)c2ccco2)c1C,"inconclusive [inhibitor, single point]"
4,CCCCN1C(=O)/C(=C/C=C2\N(C)c3ccccc3C2(C)C)SC1=S,"inconclusive [activator, single point]"
5,CCOc1ccc(OCC)c(NC(=O)CSc2nc3c(c(=O)n(C)c(=O)n3C)n2C(C)C)c1,"inconclusive [inhibitor, single point]"
6,CC(C)C1C(=O)NC(=S)N1S(=O)(=O)c1ccc(C(C)(C)C)cc1 (centres undefined),inactive
7,COc1cccc(-c2nccc(NCCc3c[nH]c4ccc(OC)cc34)n2)c1,"inconclusive [inhibitor, partial curve]"
8,CS(=O)(=O)Nc1ccc(C2=NN(S(=O)(=O)c3ccccc3)C(c3cccs3)C2)cc1 (centres undefined),"inconclusive [inhibitor, single point]"
9,O=C1NC(c2ccccc2)Nc2c1sc(=S)n2-c1ccccc1 (centres undefined),"inconclusive [inhibitor, full curve, poor fit]"
10,c1ccc(Cc2nnc3sc(-c4ccccn4)nn23)cc1,inactive
11,NC(=O)NC(=O)COC(=O)[C@H](Cc1ccccc1)NC(=O)c1cccs1,"inconclusive [inhibitor, single point]"
12,Cc1cccc2nc(CSc3nc4[nH]ncc4c(=O)n3-c3cccc(Cl)c3)cc(=O)n12,inactive
13,CN(C)S(=O)(=O)c1cccc(-c2cn3cc(Cl)ccc3n2)c1,inactive
14,O=C1C2C3C=CC(C4CC34)C2C(=O)N1/N=C/c1ccc(-c2ccccc2[N+](=O)[O-])o1 (centres undefined),"inconclusive [inhibitor, single point]"
15,Cc1c(CCC(=O)O)c(=O)oc2cc(O)ccc12,"inconclusive [activator, partial curve]"
16,CCOC(=O)c1c(C)[nH]c(/C(C)=N/O)c1C,"inconclusive [inhibitor, partial curve]"
17,O=C(Nc1ccc(-c2nc3cc(NC(=O)c4cccs4)ccc3o2)cc1)c1cccs1,"inconclusive [inhibitor, partial curve, poor fit]"
18,Cc1cccc(C2=NN(c3ccccc3)[C@H](CO)[C@H]2c2ccccc2)c1,"inconclusive [activator, partial curve]"
19,CC(C)(C)c1ccc(C(=O)OCC(=O)Nc2sc3c(c2C#N)CCC3)cc1,inactive
20,COc1ccc2cc(C#N)c(NC(C)C)nc2c1,"inconclusive [activator, single point]"
21,C/C(CC(=O)NC12CC3CC(CC(C3)C1)C2)=N\NC(=O)Cc1cccs1,"inconclusive [inhibitor, single point]"
22,Nc1ccc2nc3c(=O)[nH]c(=S)[nH]c3nc2c1,"inconclusive [inhibitor, single point]"
23,CCCOc1ccc(C2C(C(=O)OC)=CN(CCOC)C=C2C(=O)OC)cc1,"inconclusive [activator, partial curve]"

row,Compound,Potency
1,CCOC(=O)N1CCN(C(=O)CS(=O)(=O)c2cn(Cc3ccccc3C)c3ccccc23)CC1,"inconclusive [activator, single point]"
2,CN(C)c1nc(N(C)C)nc(N(C#N)CCOc2ccccc2)n1,"inconclusive [inhibitor, single point]"
3,COc1ccc(-c2nc3cnc(N4CCN(C)CC4)nc3n(CCc3ccccc3)c2=O)cc1,"inconclusive [activator, partial curve]"
4,CCCCC(=O)Nc1ccc(C(=O)N2CCCC(C(=O)OCC)C2)cc1 (centres undefined),inactive
5,COc1ccccc1C1CN(c2ccccc2)N=C1c1cccs1 (centres undefined),"inconclusive [activator, partial curve]"
6,O=C(NC(=S)NCC1COc2ccccc2O1)c1ccccc1 (centres undefined),"inconclusive [inhibitor, single point]"
7,CCCc1cc(=O)oc2c(CN3CCOCC3)c(O)ccc12,"inconclusive [activator, partial curve]"
8,O=C(Oc1ccnc2cc(Cl)ccc12)N1CCCCCC1,"inconclusive [activator, full curve]"
9,O=C1NC(c2ccccc2OC(F)F)Oc2ccccc21 (centres undefined),inactive
10,Cc1ccc(O)c(C2=NOC(O)(C(F)(F)C(F)F)C2)c1 (centres undefined),"inconclusive [inhibitor, full curve, poor fit]"
11,CCCCn1c(-c2ccc([N+](=O)[O-])cc2)n[nH]c1=S,"inconclusive [inhibitor, single point]"
12,O=C(c1cccc2cccc(O)c12)N1CCCCC1,inactive
13,COc1ccc(N2CCn3c2nc2c3c(=O)n(CCCc3ccccc3)c(=O)n2C)c(OC)c1,inactive
14,NC(=O)c1ccsc1NC(=O)COC(=O)c1ccccc1NCc1ccco1,"inconclusive [activator, single point]"
15,COc1cc2c(cc1NC(=O)Nc1ccc(F)cc1)oc1ccccc12,inactive
16,CCCCC(CC)CNC(=O)c1cccs1 (centres undefined),"inconclusive [inhibitor, single point]"
17,CCn1c(=NC(=O)C2COc3ccccc3O2)sc2c(OC)ccc(OC)c21 (centres undefined),inactive
18,CCN1C(=O)C(CC(=O)Nc2ccc(OC)cc2)N(CCCN2CCN(c3ccc(F)cc3)CC2)C1=S (centres undefined),inactive
19,CC1CCN(CCCNC(=O)c2ccc3c(=O)n(CCc4ccccc4)c(=O)[nH]c3c2)CC1,"inconclusive [activator, single point]"
20,CSc1ncccc1C(=O)OCc1ccccc1F,"inconclusive [inhibitor, single point]"
21,Cc1cc(C)c(S(=O)(=O)N(C)CC(=O)NCc2ccccn2)c(C)c1,"inconclusive [inhibitor, full curve, poor fit]"
22,O=C(NC(=S)Nc1cc(S(=O)(=O)N2CCOCC2)ccc1N1CCOCC1)c1ccco1,inactive
23,COCCn1c(=O)c(-c2cc(F)cc(F)c2)nc2cnc(N3CCNCC3)nc21,"inconclusive [activator, single point]"
